Data reported in the RNAGym collection of RNA variant scans (doi:10.7554/elife.90254).
The source gives no read counts; variants with many changes may rest on few reads.

B1: LINE1-mini (parent)
chain: GGCAGAGCUCAACACAGCGUGGCAAAGUGGCUGUGGCUAGACUGCC

Variants of: B1
Test: self-cleavage, relative activity (ratio to wild type); higher = more cleavage; in vitro, sequencing; the parent is a self-cleaving ribozyme
In the case of C18G G22U C23G, the self-cleavage is reported as 0.44.
Variant U34C G35U C37A has a self-cleavage of 0.09.
In the case of A11G U34G G36U, the self-cleavage is reported as 0.01.
With C3U C18A A25C U32A C37G U43A the self-cleavage was 0.01.
C8U G17U A25C G27A showed a self-cleavage of 0.08.
In the case of A4U C8U U9A G19A, the self-cleavage is reported as 0.09.
C3A A16U G40U gave a self-cleavage of 0.11.
C18G G27C U34C A39C C45G showed a self-cleavage of 0.04.
C13G G30U C45A gave a self-cleavage of 0.32.
Work on G2C G19A G21A A26C yielded a self-cleavage of 0.21.
With U9G G19A G44A the self-cleavage was 0.02.
With G29A C42U C45A the self-cleavage was 0.02.
Variant C13G G27A C42G has a self-cleavage of 0.06.
For U9G C18A A24C, the self-cleavage was 0.08.
G27U G40C U43C G44U gave a self-cleavage of 0.08.
A6C U20C G21U G33A showed a self-cleavage of 0.02.
Work on A41C C42U U43G G44C C46A yielded a self-cleavage of 0.3.
A4G G7C A39U gave a self-cleavage of 0.17.
Variant C13U A25U G29C G30A G44U has a self-cleavage of 0.17.
G1U G2A U20C G22C A24C U32C G33U C45A showed a self-cleavage of 0.1.
Work on A12U C13A A25G yielded a self-cleavage of 0.08.
Work on C13G G30U A41C yielded a self-cleavage of 0.02.
U28A U34A G35A U43A G44C gave a self-cleavage of 0.03.
Variant G2U C8G C10G A25G C45U C46G has a self-cleavage of 0.02.
With C23A G30U C31U G33C C37G the self-cleavage was 0.03.
In the case of C15G A24C C37A, the self-cleavage is reported as 0.
Work on A12U G17U C42A U43A yielded a self-cleavage of 0.01.
With A6G C13U U34G the self-cleavage was 0.05.
Work on A6C G29A U38G yielded a self-cleavage of 0.03.
For G19A C23U A25G G30U, the self-cleavage was 0.22.
Work on A4U G7A G33U G40U U43G C45A yielded a self-cleavage of 0.07.
C10A G27U G30U showed a self-cleavage of 0.03.
G5C G29C U38A A39G A41U showed a self-cleavage of 0.02.
Work on C3A A6U U20A A25G A26C C42G yielded a self-cleavage of 0.07.
In the case of G1C G7A A11U, the self-cleavage is reported as 0.01.
Variant G22C C37A U38G has a self-cleavage of 0.01.
Work on G7C C23A G27U U32A G35U yielded a self-cleavage of 0.04.
Variant G1C C15A G30C U34C has a self-cleavage of 0.
In the case of A4G G17U A41U, the self-cleavage is reported as 0.07.
In the case of G5C A12U G19A A26U C42U, the self-cleavage is reported as 0.
G2U A16G A25U gave a self-cleavage of 0.12.
For C15A G22C G40A C46A, the self-cleavage was 0.04.
In the case of G17A C18A G30C, the self-cleavage is reported as 0.46.
For A6U C10U U20A A25U C31G U43C, the self-cleavage was 0.07.
Variant C3A C10U G27A has a self-cleavage of 0.05.
For A6G G22C C23U G27U, the self-cleavage was 0.05.
Work on G7A C37A C42U U43C C45A yielded a self-cleavage of 0.09.
A4G C10U C23A G27U gave a self-cleavage of 0.19.
Variant A12G G17A C18A G22A G40A has a self-cleavage of 0.02.
With G1A C8A A14C G19C the self-cleavage was 0.19.
For U9G U43A C45G, the self-cleavage was 0.81.
Variant G17A C31U G40U has a self-cleavage of 0.03.
In the case of G22U G30A A39G G44U, the self-cleavage is reported as 0.04.
Work on A25U G27U G40A G44C yielded a self-cleavage of 0.03.
A12G U20A G33C showed a self-cleavage of 0.02.
With C8A G19C U20G A25C A26G C31G the self-cleavage was 0.01.
For C8A A12C C15G A25G, the self-cleavage was 0.02.
With A12C A24G U34C G35U the self-cleavage was 0.03.
A4C A12U U43A gave a self-cleavage of 0.02.
Variant A4C G5C G7A A12C G17U A25G has a self-cleavage of 0.02.
With G2U A6G A24U G44A the self-cleavage was 0.02.
With A16U G19U G22A the self-cleavage was 0.2.
With G2C C13A A26G G27A U43A the self-cleavage was 0.03.
Work on C15A A24C U32G yielded a self-cleavage of 0.01.
For G19C A25U A26C, the self-cleavage was 0.42.
Work on G1C G2A G19A A25U yielded a self-cleavage of 0.19.
C10A A41G C42U gave a self-cleavage of 0.03.
For G5U C13G U34G, the self-cleavage was 0.05.
Work on C8A G21U C42G U43A yielded a self-cleavage of 0.1.
Variant G5U U20G G30U C37A has a self-cleavage of 0.02.
Variant C8U C10G G27C G30U has a self-cleavage of 0.01.
In the case of A4G A25G G29U, the self-cleavage is reported as 0.2.
U9C C10A G17C U32A gave a self-cleavage of 0.01.
C10U U38G C45A gave a self-cleavage of 0.02.
A16U G29A G36A C37G gave a self-cleavage of 0.02.
In the case of G29C G33U C46G, the self-cleavage is reported as 0.05.
With G1U C18U G19U C23G the self-cleavage was 0.8.
Variant A11U C15A G19U U20C G27U C37A has a self-cleavage of 0.01.
Variant A12G C13A G21U G22C G40U has a self-cleavage of 0.01.
G2A C3G A6C A11G U20A G36C C42U C45A showed a self-cleavage of 0.01.
For A6C A16U C37A G40A A41U, the self-cleavage was 0.01.
For G2U C3G C13A G21C C42U, the self-cleavage was 0.18.
In the case of G2U G21C A25C, the self-cleavage is reported as 0.06.
For G2C G7A A14U U34G G44A, the self-cleavage was 0.18.
For G5C C8G C23A A41G, the self-cleavage was 0.31.
Work on C8U G17A A25C C37U C45U yielded a self-cleavage of 0.15.
G27U U28G G29C A39C gave a self-cleavage of 0.05.
G5C G17U U28C C42G gave a self-cleavage of 0.59.
C8U A11C G17U showed a self-cleavage of 0.03.
C8A U9G U28A G33A G44U showed a self-cleavage of 0.03.
Work on A24G G40C U43A yielded a self-cleavage of 0.03.
G1U C8A A11C G36U gave a self-cleavage of 0.02.
In the case of G1U G5C G7A A12C U28G U34G G36A G40A G44U, the self-cleavage is reported as 0.
For A6C A26U G30U, the self-cleavage was 0.55.
C8U C13G A14C A24C U43C showed a self-cleavage of 0.02.
With G7U G27U G35U the self-cleavage was 0.08.
A11U A16G U20G C23A showed a self-cleavage of 0.01.
G7C G17C U34C gave a self-cleavage of 0.04.
With C37A G40U C46G the self-cleavage was 0.07.
A6G G17A U34A C37U gave a self-cleavage of 0.01.
Variant U9G G22U G44U C46A has a self-cleavage of 0.02.
G5C A12G G22C C23G gave a self-cleavage of 0.
Work on G5U C8G U20A yielded a self-cleavage of 0.
Work on G1C C3A A24G G35A G36C yielded a self-cleavage of 0.43.
Variant A12C A41C C42G has a self-cleavage of 0.
With A11U G35C A39C the self-cleavage was 0.03.
A4U C31A G40U gave a self-cleavage of 0.06.
Work on G30U A39C A41C yielded a self-cleavage of 0.03.
Variant U9G G30C C37U has a self-cleavage of 0.04.
Work on G1A G17A G27A yielded a self-cleavage of 0.22.
With C18A C31U C37A the self-cleavage was 0.02.
In the case of A11C C31A U32C, the self-cleavage is reported as 0.
G5A G35U C37A gave a self-cleavage of 0.06.
C13A A24G A26C C37G C45G gave a self-cleavage of 0.03.
For C10G A24G G30C, the self-cleavage was 0.07.
C18A G36A C37A showed a self-cleavage of 0.04.
Variant C10A G22A A39C U43A G44C has a self-cleavage of 0.01.
With C10G A11U C15G U34C the self-cleavage was 0.01.
With A6C G22C U43A the self-cleavage was 0.
Variant G7A G36U U43A has a self-cleavage of 0.4.
Variant G2U C10A G30U has a self-cleavage of 0.03.
For G5C C10U G22U, the self-cleavage was 0.06.
For C3A G21A G22U A39G, the self-cleavage was 0.2.
C10U G29C G33A gave a self-cleavage of 0.07.
With C3U C10G G29C the self-cleavage was 0.04.
For G2C C15U G21C G33A G44U, the self-cleavage was 0.26.
In the case of A12G G17C C42A, the self-cleavage is reported as 0.
C3A G21C G30U G44U gave a self-cleavage of 2.71.
For A6G A14U G17U G27C G29A G44U, the self-cleavage was 0.23.
G30C C37G G44U C46U showed a self-cleavage of 0.04.
For U20A U28G C46U, the self-cleavage was 1.78.
For C23G U32C A39U, the self-cleavage was 0.04.
Variant C18A A24C G27C has a self-cleavage of 0.05.
C15U C18U G36C showed a self-cleavage of 0.02.
G7U U38G C46G gave a self-cleavage of 0.03.
With A11G A24U C37U A39G the self-cleavage was 0.01.
Variant C8A A26U C31A has a self-cleavage of 0.78.
In the case of G2A C15A U34C, the self-cleavage is reported as 0.03.
With C8A A24U G33A the self-cleavage was 0.05.
For G1U G30A G33A G40C, the self-cleavage was 0.01.
C15A G27A C31G gave a self-cleavage of 0.02.
Work on G29U U32C C45G yielded a self-cleavage of 0.05.
For G5A G22C U34C, the self-cleavage was 0.1.
In the case of G30A A41C C42A, the self-cleavage is reported as 0.01.
For G21A G36U A39U C42A, the self-cleavage was 0.03.
Work on C23A U32A G33U U38G C46G yielded a self-cleavage of 0.03.
G5U C8A A24G C46G gave a self-cleavage of 0.54.
For G7A U9G A14C G21U G40A, the self-cleavage was 0.02.
In the case of G5A U9A U20G G35U, the self-cleavage is reported as 0.06.
Variant A4U C18G U32A A39C G44A has a self-cleavage of 0.01.
G7C C8G U20A gave a self-cleavage of 0.15.
Work on G1U U9G C31G yielded a self-cleavage of 0.04.
Variant G2A C8A A41U has a self-cleavage of 0.83.
In the case of C3U G5C C13A A26G, the self-cleavage is reported as 0.06.
U9A G19A G22A A24C U28A G35U showed a self-cleavage of 0.17.
In the case of G5A G35U G36C, the self-cleavage is reported as 0.14.
In the case of C8G A11U A12U A14U G27U U32A, the self-cleavage is reported as 0.01.
For G2A A6G C10A G27U G40U C45G, the self-cleavage was 0.01.
C8U C18U U20C A26C G27U gave a self-cleavage of 0.03.
Variant A4U G5A A16C G17U U32A G35U has a self-cleavage of 0.18.
Variant C3A A4C A24U G36U has a self-cleavage of 0.12.
Variant C3U A26C G27A C42U G44A has a self-cleavage of 0.29.
In the case of G5U C10A G35A G40U, the self-cleavage is reported as 0.03.
With G2A C10A A12U G35A the self-cleavage was 0.05.
Variant G1U C10G A16U has a self-cleavage of 0.
With A11G A24U G44C C46A the self-cleavage was 0.07.
A4G G21C C42A showed a self-cleavage of 0.1.
